{
  "source": "paper PMC7819943",
  "about": "“Rice protein-binding microarrays: a tool to detect cis-acting elements near promoter regions in rice”",
  "note": "This is one part of the list.",
  "data": [
    {"target": "T1, OsWOX13 (Oryza sativa, UniProt Q5QMM3 1-267)", "T1 sequence": "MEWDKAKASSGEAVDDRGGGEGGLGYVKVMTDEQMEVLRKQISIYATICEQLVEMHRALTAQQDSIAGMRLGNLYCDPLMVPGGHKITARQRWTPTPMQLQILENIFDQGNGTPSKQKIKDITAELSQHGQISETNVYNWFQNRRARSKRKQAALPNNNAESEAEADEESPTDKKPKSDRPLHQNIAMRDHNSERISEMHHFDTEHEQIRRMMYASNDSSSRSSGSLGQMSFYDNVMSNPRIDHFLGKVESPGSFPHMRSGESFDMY", "assay": "protein-binding microarray (RPBM); PBS, 2% BSA, 51.3 ng/ul salmon testes DNA, 50 uM zinc acetate, 200 nM TF, 25 C, 1 h; high values mean tight binding", "conditions": "protein: recombinant; tags: N-terminal polyhistidine and DsRed monomer fusion (pET32a); label: CyDye5-dUTP incorporated in the synthesized complementary strand; 3' TTTTT single-stranded linker to array surface; dsDNA, one strand shown", "procedure,_shortened": "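Per-feature fluorescence intensity (arbitrary units), read on an Axon 4000B scanner, is the binding signal. Transcription factors carrying an N-terminal polyhistidine tag and DsRed fusion were expressed in E. coli BL21-CodonPlus and purified on Ni–NTA. A custom Agilent array, made double-stranded by primer extension with Cy5-dUTP and blocked with 2% BSA, was incubated with 200 nM protein in PBS, 2% BSA, salmon testes DNA and 50 µM zinc acetate at 25 °C for 1 h and then washed.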", "values": [
      {"sequence": "TCTTAATTAGTAATATAACAGCCATTGTACATATAACCGGCGGAGTCACCTAGTGCAG", "binding signal": "32500 fluorescence intensity (a.u.)"},
      {"sequence": "AAAATTTTGCCCATCAACGAGAACTCAATAACGGGGCACTCGGAGTCACCTAGTGCAG", "binding signal": "5120 fluorescence intensity (a.u.)"},
      {"sequence": "TCAATGAATTGAAATGAAATTTAAGTATGCTTTGCTGCTGCGGAGTCACCTAGTGCAG", "binding signal": "11200 fluorescence intensity (a.u.)"},
      {"sequence": "GACGACGTTAATTAGTAATTACTCAACCATTACCATGTGCCGGAGTCACCTAGTGCAG", "binding signal": "37300 fluorescence intensity (a.u.)"},
      {"sequence": "ACAACATATAAATCAGTCTAAACTTATTTCGCACGTCAAGCGGAGTCACCTAGTGCAG", "binding signal": "4200 fluorescence intensity (a.u.)"},
      {"sequence": "GTGGACTGCAAATTAATTGTGTATAAGCAAGTCAACCGAGCGGAGTCACCTAGTGCAG", "binding signal": "23800 fluorescence intensity (a.u.)"},
      {"sequence": "AAGAAGATAAATAATCAATCAATGTCCAATAATCAATAGCCGGAGTCACCTAGTGCAG", "binding signal": "28700 fluorescence intensity (a.u.)"},
      {"sequence": "TGATGATTACATATTTTCCTCGGATTTTGATTCATCTGAACGGAGTCACCTAGTGCAG", "binding signal": "29000 fluorescence intensity (a.u.)"},
      {"sequence": "AAATTTATAATTTTACAATAAATTTGATATTAAATTTGTACGGAGTCACCTAGTGCAG", "binding signal": "12300 fluorescence intensity (a.u.)"},
      {"sequence": "TAATAATGTAAACTAATAACAAAACAAATTATAGGTTCCGCGGAGTCACCTAGTGCAG", "binding signal": "4540 fluorescence intensity (a.u.)"},
      {"sequence": "CCGTTGGATTGGAATCGGAGGGCCTACAATGACTGAGTGCCGGAGTCACCTAGTGCAG", "binding signal": "5860 fluorescence intensity (a.u.)"},
      {"sequence": "TGCATTGATGTCTGTGATTTACAAGTATGGAGATGAAAGGCGGAGTCACCTAGTGCAG", "binding signal": "10900 fluorescence intensity (a.u.)"},
      {"sequence": "ACTGATGAAGTTGTTTAGTTTATTATCATAGTTTACCACGCGGAGTCACCTAGTGCAG", "binding signal": "5400 fluorescence intensity (a.u.)"},
      {"sequence": "CTTGTTTGACTGACATATGGGTTCTGCATGTTTTGTTTTACGGAGTCACCTAGTGCAG", "binding signal": "9030 fluorescence intensity (a.u.)"},
      {"sequence": "CCAGATTATAATAATCCTAAGCTGAATCAAACATGGCCTACGGAGTCACCTAGTGCAG", "binding signal": "9510 fluorescence intensity (a.u.)"},
      {"sequence": "TTCGTAGAAATTCCGCTATCAAAGCTCGGCCAACACATAGCGGAGTCACCTAGTGCAG", "binding signal": "18000 fluorescence intensity (a.u.)"},
      {"sequence": "CTATCAATTATGATTACATTAAGTAAATGTAGATAAGGCCCGGAGTCACCTAGTGCAG", "binding signal": "45200 fluorescence intensity (a.u.)"},
      {"sequence": "GTCTAAATATTTGATGTGATAGGATGTAAAATTTTACCAACGGAGTCACCTAGTGCAG", "binding signal": "8970 fluorescence intensity (a.u.)"},
      {"sequence": "TGTAACTAATGAATTGATTAATGAGGAGAGGTGCTGATTGCGGAGTCACCTAGTGCAG", "binding signal": "38500 fluorescence intensity (a.u.)"},
      {"sequence": "GGGATTGGTTGAGAAAATAAAACAGATATATAAGTTTATCCGGAGTCACCTAGTGCAG", "binding signal": "3160 fluorescence intensity (a.u.)"},
      {"sequence": "TATATATAATGATGATTTAATGAAACTAATTTGATATTGTCGGAGTCACCTAGTGCAG", "binding signal": "20500 fluorescence intensity (a.u.)"},
      {"sequence": "CTATGACGTTTGTTTCTCGCTGATTATCTGCCATACAAATCGGAGTCACCTAGTGCAG", "binding signal": "3880 fluorescence intensity (a.u.)"},
      {"sequence": "TATTAAATTAGCTATAGATGTTTTGGAGTCAGTAGTTGGCCGGAGTCACCTAGTGCAG", "binding signal": "20700 fluorescence intensity (a.u.)"},
      {"sequence": "GCTAATTAATATGTTTTCACAAGTATTCTCTAACAAAGACCGGAGTCACCTAGTGCAG", "binding signal": "24900 fluorescence intensity (a.u.)"},
      {"sequence": "ATGATTAATCATAAGTGCTACAGTAACCCACATGTGCTAACGGAGTCACCTAGTGCAG", "binding signal": "20500 fluorescence intensity (a.u.)"},
      {"sequence": "GATGTGACTGAAAAGTTGTGTGTGTATGACAGGTACATGTCGGAGTCACCTAGTGCAG", "binding signal": "8110 fluorescence intensity (a.u.)"},
      {"sequence": "ATCTAGATGATTTTACTATTCTACCTTATTTTGTTCACAACGGAGTCACCTAGTGCAG", "binding signal": "4640 fluorescence intensity (a.u.)"},
      {"sequence": "AAACCGAGGTAAATTATGTCAATCATAATATTGGAACTAACGGAGTCACCTAGTGCAG", "binding signal": "22500 fluorescence intensity (a.u.)"},
      {"sequence": "CATACAGTGGTAAATTGGACTTCAACCATGCGCCCTGTTGCGGAGTCACCTAGTGCAG", "binding signal": "3380 fluorescence intensity (a.u.)"},
      {"sequence": "GTAAATTTGTGCTCAAAATGTACAGGAGTAGGGTTTTATGCGGAGTCACCTAGTGCAG", "binding signal": "11600 fluorescence intensity (a.u.)"},
      {"sequence": "AACAAATTAACTAGACTTTTCTCATCATCATCATCATCAGCGGAGTCACCTAGTGCAG", "binding signal": "20400 fluorescence intensity (a.u.)"},
      {"sequence": "AAACTAATTATACAGATTACGTGTAAATTGCGAGACGAATCGGAGTCACCTAGTGCAG", "binding signal": "42000 fluorescence intensity (a.u.)"},
      {"sequence": "TAGAGATTGGTATAAGCATGGAATACATTTACACCACGGCCGGAGTCACCTAGTGCAG", "binding signal": "6480 fluorescence intensity (a.u.)"},
      {"sequence": "GTCTCAATCACCACGTGCTCTTCCATCCTCCATAAATACTCGGAGTCACCTAGTGCAG", "binding signal": "7020 fluorescence intensity (a.u.)"},
      {"sequence": "ATTGATTGCTGGACACCCGCGAGATTATTTTATTATATTTCGGAGTCACCTAGTGCAG", "binding signal": "28800 fluorescence intensity (a.u.)"},
      {"sequence": "CAATTAATTATACGTTAATGGCTCAGCTCGTTTTGCGTACCGGAGTCACCTAGTGCAG", "binding signal": "40100 fluorescence intensity (a.u.)"},
      {"sequence": "CTAAAATTGAAAGTTTGGTTGAAATTGAAGCGATGTGACGCGGAGTCACCTAGTGCAG", "binding signal": "16400 fluorescence intensity (a.u.)"},
      {"sequence": "GTTAATAAATCTAGACAGATATAACATCAATATAAATGTGCGGAGTCACCTAGTGCAG", "binding signal": "5810 fluorescence intensity (a.u.)"},
      {"sequence": "TCCTAATTGTACAATTAATTAAATTAAGTACAGTCCTATGCGGAGTCACCTAGTGCAG", "binding signal": "53000 fluorescence intensity (a.u.)"},
      {"sequence": "GATCAATCTATGATCTCTAATTTTGGTAGCCTGGCTTGGACGGAGTCACCTAGTGCAG", "binding signal": "25500 fluorescence intensity (a.u.)"},
      {"sequence": "TTACACTATAATTACAGTGTAATTACATGCAAGTTACAGTCGGAGTCACCTAGTGCAG", "binding signal": "18000 fluorescence intensity (a.u.)"},
      {"sequence": "TGGAGGGAGTAATTAACTGTTGTTTGTTTGTCAGCTTCTACGGAGTCACCTAGTGCAG", "binding signal": "3490 fluorescence intensity (a.u.)"}
    ]}
  ]
}
